T1: Human VEGF-C protein (human, UniProt P49767 112-227, limits assumed)
T1 construct: Treated as one molecule; also called VEFG-C
T1 sequence (looked up): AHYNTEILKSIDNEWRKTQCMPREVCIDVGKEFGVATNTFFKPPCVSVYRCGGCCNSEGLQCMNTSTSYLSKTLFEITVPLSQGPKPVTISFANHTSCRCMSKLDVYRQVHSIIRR


Molecular target: T1, Human VEGF-C protein
Experiment: SPR (Biacore T200), binder captured on Protein A chip, VEGF as analyte, multi-cycle

Row | Kd [nM] | Binder
1 | 0.0134 | PR1163 (heavy chain H: R2D2 (C162V)-R2D3-Fc-linker-VH-CH1; light chain L: VL-CL) (Fc fusion) heavy: SPFIASVSDQHGVVYITENKNKTVVIPCLGSISNLNVSLVARYPEKRFVPDGNRISWDSKKGFTIPSYMISYAGMVFCEAKINDESYQSIMYIVVVVGYRIYDVVLSPSHGIELSVGEKLVLNCTARTELNVGIDFNWEYPSSKHQHKKLVNRDLKTQSGSEMKKFLSTLTIDGVTRSDQGLYTCAASSGLMTKKNSTFVRVHEK[human IgG1 Fc with changes not printed]GGGGSGGGGSGGGGSGGGGSEVQLVESGGGLVQPGGSLRLSCAASGYTFTNYGMNWVRQAPGKGLEWVGWINTYTGEPTYAADFKRRFTFSLDTSKSTAYLQMNSLRAEDTAVYYCAKYPHYYGSSHWYFDVWGQGTLVTVSSASTKGPSVFPLAPSSKSTSGGTAALGCLVKDYFPEPVTVSWNSGALTSGVHTFPAVLQSSGLYSLSSVVTVPSSSLGTQTYICNVNHKPSNTKVDKKVEPKSC light: DIQMTQSPSSLSASVGDRVTITCSASQDISNYLNWYQQKPGKAPKVLIYFTSSLHSGVPSRFSGSGSGTDFTLTISSLQPEDFATYYCQQYSTVPWTFGQGTKVEIKRTVAAPSVFIFPPSDEQLKSGTASVVCLLNNFYPREAKVQWKVDNALQSGNSQESVTEQDSKDSTYSLSSTLTLSKADYEKHKVYACEVTHQGLSSPVTKSFNRGEC
2 | 0.0123 | PR1186 (heavy chain H: R1D2-R2D3-R2D2 (C162V/Y221S/R222K)-R2D3 (N274F/S283T)-Fc-linker-VH-CH1; light chain L: VL-CL) (Fc fusion) heavy: SPFIASVSDQHGVVYITENKNKTVVIPCLGSISNLNVSLVARYPEKRFVPDGNRISWDSKKGFTIPSYMISYAGMVFCEAKINDESYQSIMYIVVVVGSKIYDVVLSPSHGIELSVGEKLVLNCTARTELNVGIDFNWEYPSSKHQHKKLVFRDLKTQSGTEMKKFLSTLTIDGVTRSDQGLYTCAASSGLMTKKNSTFVRVHEK[human IgG1 Fc with changes not printed]GGGGSGGGGSGGGGSGGGGSEVQLVESGGGLVQPGGSLRLSCAASGYTFTNYGMNWVRQAPGKGLEWVGWINTYTGEPTYAADFKRRFTFSLDTSKSTAYLQMNSLRAEDTAVYYCAKYPHYYGSSHWYFDVWGQGTLVTVSSASTKGPSVFPLAPSSKSTSGGTAALGCLVKDYFPEPVTVSWNSGALTSGVHTFPAVLQSSGLYSLSSVVTVPSSSLGTQTYICNVNHKPSNTKVDKKVEPKSC light: DIQMTQSPSSLSASVGDRVTITCSASQDISNYLNWYQQKPGKAPKVLIYFTSSLHSGVPSRFSGSGSGTDFTLTISSLQPEDFATYYCQQYSTVPWTFGQGTKVEIKRTVAAPSVFIFPPSDEQLKSGTASVVCLLNNFYPREAKVQWKVDNALQSGNSQESVTEQDSKDSTYSLSSTLTLSKADYEKHKVYACEVTHQGLSSPVTKSFNRGEC
